From PubChem BioAssay AID686978 (National Center for Advancing Translational Sciences (NCATS), 2013)
Where “and” joins values, the source holds several entries; their conditions need not be identical. Equal values may be shown once. The campaign covered roughly 420,000 compounds. About 64,000 (15%) were called active. The shares of active, inactive and inconclusive entries below differ from those in the screen. The call rests on the fitted dose curve; in most records, active means well fitted inhibition curve with a large enough effect; inconclusive means small, poorly fitted or top-dose-only effect; inactive means flat fitted curve, though single readings scatter. Potencies beside an inconclusive call are fits to weak or partial responses and may not hold up.

Assay: qHTS for Inhibitors of human tyrosyl-DNA phosphodiesterase 1 (TDP1): qHTS in cells in absence of CPT; further: nearly all actives have a fitted effect of over 55% in size
Details: DT40 Tdp1-/- hTDP1 cells, no CPT, ATP luminescence, 48 h; activity change, negative = growth inhibition: at 46.2 µM (top of the series) unless noted
Method in brief: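 Stably hTDP1-transfected Tdp1-null chicken DT40 cells were treated with library compounds minus camptothecin and grown for at least 48 hr at 37 °C, after which cellular ATP was quantified by luminescence.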
On the % scale 0 is the no-effect control and ±100 the full control effect; potency means the concentration at half of the fitted maximal effect; tags describe the fitted curve by direction and shape.

SMILES | Potency | activity change, negative = growth inhibition
COC(=O)c1sc2cccc(F)c2c1S(=O)(=O)Nc1cc(C)c(Cl)cc1OC | inconclusive: 29.1 µM [inhibitor, single point] | –
CCOC(=O)c1c(NC(=O)COc2cccc3c2CCN(C)C3=O)sc2c1CCC2 | active: 9.2 µM | –
COc1ccccc1-c1nn(-c2ccccc2)cc1C(=O)N1CCc2ccccc2C1 | inconclusive: 29.1 µM [inhibitor, single point] | –
COc1ccc(-c2nnn(CC(=O)N(CC(=O)NC3CCCC3)c3ccccc3F)n2)cc1OC | – | inactive: -24.5%
CN(CC(=O)Nc1ccc(N2CCOCC2)cc1)C(=O)CCc1cc(C(C)(C)C)c(O)c(C(C)(C)C)c1 | active: 16.4 µM | –
CN(C)/N=C/C=C1\CC/C(=C\c2ccc(Br)cc2)C1=O | inconclusive: 29.1 µM [inhibitor, single point] | –
CCc1cccc(C)c1NC(=O)CN1C(=O)c2ccccc2Sc2ncccc21 | inconclusive: 29.1 µM [inhibitor, single point] | –
CCn1cc([N+](=O)[O-])c(C(=O)N2CCCc3ccccc32)n1 | – | inactive: 15.4%
CC(C)(C)c1ccc(Cn2cnc(-c3ccc([N+](=O)[O-])cc3)c2)cc1 | active: 23.1 µM | –
CCOc1ccccc1Nc1nnc(SCC(=O)Nc2cccc(S(=O)(=O)NC3=NCCCCC3)c2)s1 | active: 18.4 µM | –
CCCNC(=O)CN1C(=O)c2c(c3ccccc3n2C)C1c1ccc(OC)cc1 (centres undefined) | active: 13 µM | –
O=C(NCC1(N2CCCCC2)CCCCC1)c1cccc(S(=O)(=O)Nc2ccccc2Cl)c1 | inconclusive: 25.9 µM [inhibitor, single point] | –
COc1ccc(CNC(=O)c2cc3oc4ccccc4c3n2C)cc1OC | inconclusive: 18.4 µM [inhibitor, single point] | –
Cc1ccccc1C(=O)Nc1cccc(C(=O)N/N=C/c2cc(Cl)cc([N+](=O)[O-])c2O)c1 | inconclusive: 20.6 µM [inhibitor, single point] | –
Cc1c(C(=O)Nc2cccc(C#N)c2)sc2nc3n(c(=O)c12)CCCCC3 | active: 13 µM | –
COC(=O)CCCN1C(=O)NC(c2ccc(-c3ccccc3)cc2)C(C(=O)OCc2ccccc2)=C1C (centres undefined) | inconclusive: 20.6 µM [inhibitor, single point] | –
CN(Cc1ccccc1)C(=O)COc1ccc(N(C)S(=O)(=O)c2ccc(F)cc2)cc1 | active: 14.6 µM | –
O=C(NCC1CCCO1)Nc1ccc(Cl)cc1 (centres undefined) | inconclusive: 29.1 µM [inhibitor, single point] | –
CCC(CC)C(=O)Nc1cccc(C(=O)Nc2nnc(C)s2)c1 | inconclusive: 20.6 µM [inhibitor, single point] | –
CN(CC(=O)Nc1ccc(Cl)c(C(F)(F)F)c1)C(=O)CCc1nc2ccccc2c(=O)[nH]1 | inconclusive: 16.4 µM [inhibitor, single point] | –
CC(/C=N/NC(=O)c1cc(-c2ccc(C)o2)[nH]n1)=C\c1ccccc1 | active: 16.4 µM | –
CCC(=O)Nc1ccc2oc(-c3ccccc3Br)nc2c1 | inconclusive: 32.6 µM [inhibitor, partial curve, poor fit] | –
CCCCc1ccc(C(=O)COC(=O)c2ccc3nc(C)c(C)nc3c2)cc1 | inconclusive: 17.8 µM [inhibitor, single point] | –

SMILES | Potency | activity change, negative = growth inhibition
CCOc1ccccc1NC(=O)Nc1ccsc1C(=O)OC | – | inconclusive: -6.25% [inhibitor]
Clc1ccc(N2CCN(/N=C/c3ccncc3)CC2)cc1 | inconclusive: 29.1 µM [inhibitor, single point] | –
O=C(NCCc1ccc(Cl)cc1)c1ccc(CSCc2ccc(Cl)cc2)o1 | inconclusive: 29.1 µM [inhibitor, single point] | –
CC/C(=C/c1ccccc1)c1cccc2[nH]c3c(OC)cccc3c12 | inconclusive: 29.1 µM [inhibitor, single point] | –
CCc1cccc2c(C(=O)CN3C(=O)NC4(CCc5ccccc54)C3=O)c[nH]c12 (centres undefined) | active: 4.61 µM | –
Nc1ccc(/C=C/c2cccc3cccnc23)cc1 | inconclusive: 25.1 µM [inhibitor, single point] | –
CCCOc1ccc(NC(=O)CNC(=O)c2cc(OC)cc(OC)c2)cc1OCCC | – | inactive: -25%
Clc1ccccc1-c1nnc(SCc2nc(-c3ccccc3)no2)n1-c1ccccc1 | active: 7.31 µM | –
CCOC(=O)c1ccc(NC(=O)c2nc[nH]c2C(=O)N[C@@H](CCCCNC(=O)OC(C)(C)C)C(=O)OC(C)(C)C)cc1 | inconclusive: 23.1 µM [inhibitor, single point] | –
[O-][n+]1c2ccccc2c2n1CCN1CCOC21c1ccc(Cl)cc1 (centres undefined) | active: 7.31 µM | –
COc1cccc(NC(=O)CN(C)CC(=O)Nc2ccc(C)c(S(=O)(=O)N3CCOCC3)c2)c1 | – | inactive: -11.1%
COc1ccc(Cn2c(CCC(=O)Nc3ccc(OC)c(Cl)c3)nc3cccnc32)cc1 | inconclusive: 11.6 µM [inhibitor, partial curve] | –
COc1ccc(N2CCN(C(=O)Nc3ccccc3Cl)CC2)cc1 | inconclusive: 20.6 µM [inhibitor, single point] | –
COc1c(C)cc(S(=O)(=O)NCCN2CCOCC2)c(C)c1C | – | inactive: -4.28%
O=C1C(=Cc2ccc(Cl)cc2)CCc2ccccc21 | inconclusive: 29.1 µM [inhibitor, single point] | –
CC[n+]1c(C=C2C=C(C)OC(C)=C2)sc2ccccc21 | active: 0.0326 µM | –
N#Cc1ccc(CSc2nnc(COc3ccccc3)n2-c2ccccc2)cc1 | – | inconclusive: -33.4% [inhibitor]
Cc1ccc2nc3c(cc(C(=O)NCc4ccccc4)c(=N)n3CCCn3ccnc3)c(=O)n2c1 | inconclusive: 14.6 µM [inhibitor, partial curve] | –
COC(=O)C[C@H]1C[C@H]2c3cc(NS(=O)(=O)c4ccc(OC)cc4)ccc3O[C@H]2[C@H](CO)O1 | inconclusive: 29.1 µM [inhibitor, single point] | –
CCc1ccccc1NC(=O)Cn1c(=O)n(CCc2ccccc2)c(=O)c2ccccc21 | inconclusive: 29.1 µM [inhibitor, single point] | –
CCCC(=O)n1nc(-c2cccnc2)nc1NCc1ccccc1 | inactive | –
CCOc1ccc(NC(=O)CCC(=O)N2CCSc3ccccc32)cc1 | active: 14.6 µM and active: 16.4 µM | –
C/C(=N\N=C1/NC(=O)C(C)S1)c1ccco1 (centres undefined) | – | inactive: -0.593%

SMILES | Potency | activity change, negative = growth inhibition
Cn1ncc(Oc2ccc([N+](=O)[O-])cc2)c(Cl)c1=O | – | inactive: 1.08%
CN(C)C(=S)Nc1nc2ccccc2s1 | active: 2.59 µM | –
O=C(Cn1nc(Cc2cccnc2)c2ccccc2c1=O)NCC1COc2ccccc2O1 (centres undefined) | inconclusive: 13 µM [inhibitor, partial curve] | –
COc1cccc(Sc2nc(-c3ccccc3)ncc2S(C)(=O)=O)c1 | – | inactive: -30%
CCN(C(=O)COc1ccc(C(C)=O)cc1)c1cccc2ccccc12 | inconclusive: 29.1 µM [inhibitor, single point] | –
CCC(C)(C)NC(=O)C(c1ccc(C)o1)N(Cc1cccs1)C(=O)Cn1nnc2ccccc21 (centres undefined) | inconclusive: 25.9 µM [inhibitor, single point] | –
O=C(Nc1ccc2nc(SCC(=O)N3CCOCC3)sc2c1)c1cccc(F)c1 | active: 20.6 µM | –
Nc1ncc(CCN2CCOCC2)c(-c2ccc(F)cc2)n1 | inconclusive: 32.6 µM [inhibitor, partial curve, poor fit] | –
CC(=O)c1cccc(NC(=O)CN(C)S(=O)(=O)c2ccc3c(c2)CC(C)N3C(C)=O)c1 (centres undefined) | inconclusive: 20.6 µM [inhibitor, partial curve] | –
COc1ccc(Nc2nc(NN)nc(C)c2[N+](=O)[O-])cc1 | inconclusive: 11.6 µM [inhibitor, single point] | –
CC(C)Oc1ccc(CN2CCC2(C)C(=O)Nc2ccc3c(c2)OCO3)cc1 (centres undefined) | inconclusive: 29.1 µM [inhibitor, single point] | –
COc1ccc(NS(=O)(=O)c2c(C)nc3scc(C)n3c2=O)cc1 | inconclusive: 29.1 µM [inhibitor, single point] | –
COc1cccc(NC(=O)CSC2=Nc3ccccc3C3=NC(CC(=O)NCc4ccccc4OC)C(=O)N23)c1 (centres undefined) | inconclusive: 29.1 µM [inhibitor, single point] | –
Cc1nn(CC(O)Cn2cnc3c2c(=O)n(C)c(=O)n3C)c(C)c1Br (centres undefined) | – | inconclusive: -31.3% [inhibitor]
CCOC(=O)N1CCN(S(=O)(=O)N2CCCC(C(=O)NCc3ccc(OC)cc3OC)C2)CC1 (centres undefined) | inconclusive: 29.1 µM [inhibitor, single point] and inconclusive: 16.4 µM [inhibitor, single point] | –
CC(C)(C)C1C/C(=C/c2ccco2)C(=O)/C(=C/c2ccco2)C1 (centres undefined) | inconclusive: 20.6 µM [inhibitor, single point] | –
C=CCNc1nc2c(c(=O)n(C)c(=O)n2C)n1CCCCCC | active: 1.64 µM | –
O=C(NCc1cccnc1)c1c[nH]c2cc3c(cc2c1=O)OCCO3 | active: 5.8 µM | –
COc1ccc(C(C)(NC(C)=O)c2nc(-c3cccc4cccnc34)cs2)cc1 (centres undefined) | active: 23.1 µM | –
CCOc1ccc2nc(NC(=O)C3CCN(S(=O)(=O)c4cnc[nH]4)CC3)sc2c1 | – | inactive: -26.1%
COc1ccc(C2Nc3ccccc3C(=O)N2Cc2ccco2)cc1COc1ccc([N+](=O)[O-])cc1 (centres undefined) | active: 23.1 µM | –
CCOC(=O)CSc1nc2ccccc2n1CC(=O)N1CCN(c2ccccc2)CC1 | – | inactive: -6.21%
Cn1c(CNc2cccc(Cl)c2)nnc1SCC#N | – | inactive: -0.139%
